Values joined by “and” are separate entries in the source; they are usually repeats but may differ in a detail not shown here. Equal values may be shown once. Hit rate of the full screen: of about 16,000 compounds, about 40 (0.2%) were called active. Another 1% or so got no clear call; they are omitted. The call rests on the fitted dose curve; in most records, active means well fitted activation curve with a large enough effect; inconclusive means small, poorly fitted or top-dose-only effect, or another doubt; inactive means no such curve, though single readings can be large or run the other way. Some of the results follow.
On the % scale 0 is the no-effect control and ±100 the full control effect.

This test deals with Rap guanine nucleotide exchange factor 4 (Homo sapiens) (UniProt Q8WZA2). Kind of test: Validation qHTS for agonist of cAMP-regulated guanine nucleotide exchange factor 4 (EPAC2).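 Further: exchange makes BODIPY-GDP fluorescence drop when released from Rap1B; series mostly up to about 150 µM.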 As to conditions: EPAC2 Rap1B BODIPY-GDP exchange, fluorescence; activation: stronger effect = higher value. From the text: Principle Investigator: Xiaodong Cheng Ph.D.
Chain of UniProt Q8WZA2 (Q8WZA2 whole entry, looked up): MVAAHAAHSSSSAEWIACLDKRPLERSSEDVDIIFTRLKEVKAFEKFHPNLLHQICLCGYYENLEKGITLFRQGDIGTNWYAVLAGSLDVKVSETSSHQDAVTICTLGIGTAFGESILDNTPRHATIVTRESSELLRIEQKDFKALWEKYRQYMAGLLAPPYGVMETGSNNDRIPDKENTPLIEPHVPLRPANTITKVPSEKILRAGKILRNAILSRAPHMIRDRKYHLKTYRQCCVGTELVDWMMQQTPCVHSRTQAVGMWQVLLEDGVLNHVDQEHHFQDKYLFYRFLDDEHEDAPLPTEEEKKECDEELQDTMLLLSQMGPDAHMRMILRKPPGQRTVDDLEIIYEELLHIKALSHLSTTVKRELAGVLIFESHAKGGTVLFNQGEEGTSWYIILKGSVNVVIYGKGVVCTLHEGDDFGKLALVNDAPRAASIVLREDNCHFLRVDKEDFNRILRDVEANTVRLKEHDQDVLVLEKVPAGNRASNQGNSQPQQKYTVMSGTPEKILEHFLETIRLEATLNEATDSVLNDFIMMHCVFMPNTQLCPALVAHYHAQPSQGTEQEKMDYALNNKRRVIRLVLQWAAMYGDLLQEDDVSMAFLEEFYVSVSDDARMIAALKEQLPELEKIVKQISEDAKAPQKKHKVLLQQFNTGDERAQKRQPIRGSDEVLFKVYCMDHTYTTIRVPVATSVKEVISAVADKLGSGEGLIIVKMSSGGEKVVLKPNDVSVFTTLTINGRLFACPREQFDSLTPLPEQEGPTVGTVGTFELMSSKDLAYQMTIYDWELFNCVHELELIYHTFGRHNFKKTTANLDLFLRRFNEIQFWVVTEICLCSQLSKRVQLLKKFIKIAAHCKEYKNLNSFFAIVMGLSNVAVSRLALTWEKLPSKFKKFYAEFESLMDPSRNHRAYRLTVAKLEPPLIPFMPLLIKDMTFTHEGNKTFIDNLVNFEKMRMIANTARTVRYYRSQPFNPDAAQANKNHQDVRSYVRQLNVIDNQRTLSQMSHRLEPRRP
The University of Texas Medical Branch, […], TX
In multi-cellular eukaryotic organisms, the effects of cAMP are transduced by two ubiquitously-expressed intracellular cAMP receptors, the classic protein kinase A/cAMP-dependent protein kinase (PKA/cAPK) and the more recently discovered exchange protein directly activated by cAMP/cAMP-regulated guanine nucleotide exchange factor (EPAC/cAMP-GEF). Both PKA and EPAC are ubiquitously expressed in all tissues, and an increase in intracellular cAMP levels will lead to the activation of both PKA and EPAC. Therefore, careful dissections of the individual role and relative contribution of EPAC and PKA within the overall cAMP signaling in various model systems are critical for further elucidating the mechanism of cAMP signaling. To date no EPAC-specific antagonists and agonist, as well as isoform-specific agonists have been reported, and developing EPAC-specific pharmacological probes to determine the physiological functions that EPAC play in the overall cAMP-mediated signaling remains a major challenge within the research field. Furthermore, identified regulators of EPAC may lead to new mechanism-based therapeutic strategies specifically targeting the EPAC / cAMP-signaling components as EPAC has been implicated to play important roles in major human pathological conditions such as diabetes, heart disease, and cancer.
This qHTS will be used to screen the Molecular Libraries Small Molecule Repository (MLSMR) as a concentration-titration series using the NCGC unique quantitative screening (qHTS) platform to find activators for EPAC1. In addition, this assay will also be used as a counterscreen for the EPAC2 qHTS. This fluorescent based assay is developed and validated for EPAC1 that measures exchange using EPAC effector Rap1 complex with BODIPY-GDP, a GDP analog with a tethered fluorophores. Activators are identified by monitoring the change in fluorescence signal as the exchanged free BODIPY-GDP has a reduced fluorescence compared to Rap1-bound BODIPY-GDP. Increase in signal (activation) is the desired outcome for the EPAC1 agonist while no activity in this assay is desired for the EPAC2 agonist counterscreen.
[1] de Rooij, J., Zwartkruis, F. J., Verheijen, M. H., Cool, R. H., Nijman, S. M., Wittinghofer, A., and Bos, J.L. (1998) Nature 396, 474-477.
Briefly, three uL of reagents (100 nM EPAC2, 250 nM RAP1B-BODIPY-GDP, 50 uM GDP) were dispensed into a 1536-well Greiner black solid-bottom medium binding assay plate. Controls and test compounds (23 nL) were transferred to the plate via a Kalypsys pin tool equipped with a 1536-pin array. The plates were centrifuged at 1,000 rpm for 15 seconds followed by 5 minute incubation at room temperature. The assay plates were read at 5 minute intervals for 30 minutes in the ViewLux plate reader using 480nm excitation and 540nm emission filters. The results were normalized to the agonist positive control of 6.5 mM cAMP.
For the compound `COc1cc(-c2cc(C)c3cccc(OC)c3n2)cc2c1OCCN(C(=O)CCn1nc(C)cc1C)C2`, the activation was inactive: -16.6%.
`CCC1CN(Cc2cn[nH]c2-c2ccc(F)cc2)Cc2cc(OC)ccc2O1` (stereo not drawn): the activation is inactive: -29.4%.
In the case of `CC(C)(C)NC[C@H](O)COc1cccc2[nH]c(=O)[nH]c12`, the activation is inactive: -20.4%.
Turning to `CCOc1ccc(C(=O)c2ccc(O)c(O)c2O)cc1`, the activation is inactive: -0.0109%.
Next, `COc1ccc(CN2CCCC(n3cc(C(=O)N4CCCCC4)nn3)C2)c(OC)c1OC` (stereo not drawn): inactive: -20.2%.
Take `O=C(O)/C=C1\CCCc2ccccc2[C@H]1O`: the activation was inactive: -6.9%.
Next, `Cc1nc2cnc(N3CCOCC3)nc2n(CCC#N)c1=O`: inactive: -1.48%.
Next, `C[C@]12CC[C@@H]3c4ccc(O)cc4CC[C@H]3[C@@H]1C[C@@H](O)[C@@H]2O`: inactive: 10.1%.
Next, `CC[C@@H](C)[C@H](NS(=O)(=O)c1cccc2ccccc12)C(=O)N[C@H](C=O)Cc1c[nH]c2ccccc12`: inactive: -17.9%.
Consider `CN(C)CCCO[C@@H]1[C@H]2OC(C)(C)O[C@H]2O[C@@H]1[C@H](O)CO`, for which the activation was inactive: -29.4%.
Next, `COc1cc(=O)n2c(c1C(=O)NCc1ccco1)CCN(C(=O)c1c(F)ccc(F)c1F)CC2`: inactive: 5.07%; `COc1ccccc1CNc1ncnc2ccc(-c3cccnc3)cc12`: inactive: 5.82%.
Take `CCCCN1CCCC1C(=O)Nc1c(C)cc(C)cc1C` (stereo not drawn): the activation is inactive: -21.2%.
Next, `COc1ccccc1-c1ccc(C(=O)N2CCC(N3CCc4ccccc4C3)CC2)c(N(C)CC2COCCO2)n1` (stereo not drawn): inactive: -11.7%; `CC[N+](CC)(CC)CCC(O)(c1ccccc1)C1CCCCC1` (stereo not drawn): inactive: 5.6%.
For the compound `CC(C)C(NS(C)(=O)=O)c1nnc2n1CCN(Cc1ccc3cccnc3c1)CC2` (stereo not drawn), the activation was inactive: -7.22%.
Then `CC1(C)OC(=O)C=C[C@@]2(C)C1C[C@@H](O)[C@]1(C)C2CC[C@@]2(C)C(c3ccoc3)OC(=O)[C@H]3O[C@]321` (stereo partly drawn), with inactive: -9.01%; and `CCCCC(=O)O[C@]1(C(=O)CO)CC[C@H]2[C@@H]3CCC4=CC(=O)CC[C@]4(C)[C@H]3[C@@H](O)C[C@@]21C`, with inactive: -2.81%; and `Cc1noc(NS(=O)(=O)c2ccc(N)cc2)c1C`, with inactive: -4.03% [middle of 4 runs].
Then `Cn1c(=O)c(-c2ccc(F)cc2)nc2cncnc21`, with inactive: -3.2%.
Next, `CCc1cccc2c3c([nH]c12)C(CC)(CC(=O)O)OCC3` (stereo not drawn): inactive: -4.81% and inactive: 0.321% and inactive: -36.7%; `Cc1nc2cnc(Oc3cccc(Cl)c3)nc2n(CCC#N)c1=O`: inactive: -9.57%; `CCOC(=O)[C@H](CS)NCCN[C@@H](CS)C(=O)OCC`: inactive: -5.28%.
With `COC(=O)c1cn([C@@H]2C[C@@H](C(=O)Nc3cccc(SC)c3)N(C3CCCC3)C2)nn1`, the activation was inactive: -18.7%.
Next, `COc1ncc2nc(-c3ccc(Cl)cc3)c(=O)n(CCc3ccccc3)c2n1`: inactive: 0.414%.
Consider `CCn1c(-c2ccccc2F)nc2cc(NC(C)=O)cc(C(=O)N(C)Cc3ccccn3)c21`, for which the activation was inactive: -13.5%.
Next, `COc1cc(=O)n2c(c1C(=O)NC(C)c1ccco1)CCN(Cc1ccccc1C(F)(F)F)CC2` (stereo not drawn): inactive: -2.23%.
`Cn1cc(S(C)=O)c(=O)c2ccc(F)cc21` (stereo not drawn): the activation was inactive: -0.393%.
Then `COc1ccccc1/C=c1/[nH]c(=O)/c(=C\c2ccccc2OC)[nH]c1=O`, with inactive: -6.37%; and `CC1=C(C(=O)OCc2ccccc2)N2C(=O)[C@@H](NC(=O)OCc3ccccc3)[C@H]2SC1`, with inactive: -3.49%; and `COCC(=O)Nc1cc(C(=O)NC2C3CC4CC2CC(O)(C4)C3)cc2nc(-c3ccccc3)n(C)c12` (stereo not drawn), with inactive: -1.9%.
Then `Nc1nc2c(nc(Cl)n2C2OC(CO)C(O)C2O)c(=O)[nH]1` (stereo not drawn), with inactive: -7.68%; and `CN1CCN(c2ncc3nc(-c4cn(C)c5ccccc45)c(=O)n(C)c3n2)CC1`, with inactive: -14.6%; and `COCC(=O)Nc1cc(C(=O)N2CCN(C)C(c3ccccc3)C2)c2c(c1)nc(-c1ccncc1)n2C` (stereo not drawn), with inactive: -2.17%.
Regarding `COc1ccc(CN2CCCC(n3cc(C(=O)N4CCCCC4)nn3)C2)cc1OC` (stereo not drawn), the activation is inactive: -3.11%.
Then `CN(C)CC/C=C1\c2ccccc2COc2ccccc21`, with inactive: -12.4% and inactive: -10.9% and inactive: -8.75%; and `Cc1cc(-c2ccnc(-n3ncc(C(=O)NCC4COCCO4)c3C)n2)c(C)s1` (stereo not drawn), with inactive: -7.47%.
Next, `Cc1cnccn1`: inactive: -9.37%; `CC(C)NC(=O)N1CCCC2(CCN(C(=O)c3ccncc3)CC2)C1`: inactive: -31.8%.
Next, `O=S(c1cc(Cl)cc(Cl)c1O)c1cc(Cl)cc(Cl)c1O`: inactive: -13.2%; `O=C(O)CCC/C=C\C[C@@H]1C(/C=C/[C@@H](O)COc2cccc(C(F)(F)F)c2)[C@@H](O)C[C@@H]1O` (stereo partly drawn): inactive: 6.27%; `CCCCC[C@H](O)/C=C/C=C\C=C\C=C\[C@@H](O)[C@@H](O)CCCC(=O)O`: inactive: 2.98%.
For the compound `CC[C@H](NC(C)C)[C@H](O)c1ccc(O)c2[nH]c(=O)ccc12`, the activation is inactive: -19.4% and inactive: 4.05%.
Then `CCCCCCCC(=O)O`, with inactive: 11.1%; and `O=C(O)CNC(=O)c1ccccc1I`, with inactive: -3.11%.
Consider `Cn1cc(/C=C/c2ccc3ccccc3n2)c2ccccc21`, for which the activation was inactive: -30%.
Next, `Cc1nc2cnc(N(C)C)nc2n(CCc2ccccc2)c1=O`: inactive: 0.0357%.
Next, `CCCn1c(=O)c2[nH]c(-c3ccc(S(=O)(=O)O)cc3)nc2n(CCC)c1=O`: inactive: -37.3%; `COc1cc(=O)n2c(c1C(=O)N(C)Cc1cscn1)CCN(Cc1c(C)[nH]c3ccccc13)CC2`: inactive: -8.83%.
In the case of `O=C1N(c2ccccc2)c2ccccc2C1(Cc1ccncc1)Cc1ccncc1`, the activation is inactive: -12.3% and inactive: -11.3% and inactive: -9.62%.
Then `Cc1cnc(C)c(-c2cc(F)cc3c2OC(CNC(=O)Cc2c(C)noc2C)C3)n1` (stereo not drawn), with inactive: -5.32%; and `COc1ccc(-c2coc3c(OC)c(OC)cc(O)c3c2=O)cc1`, with inactive: 3.76%.
Then `C=C1[C@@H](O)CN(Cc2ccc(OC)cc2)S1(=O)=O`, with inactive: -3.65%; and `COCCn1c(=O)c(-c2cc(F)cc(F)c2)nc2cnc(Oc3ccccc3)nc21`, with inactive: -11.9%; and `CC(C)COC(=O)c1ccc(N)cc1`, with inactive: -20%.
Then `COc1ccc(C(=O)c2ccc(O)cc2)c(O)c1O`, with inactive: -11.3%; and `CCC1CN(CCNC(=O)c2cc(C(C)C)nn2C)Cc2cc(OC)ccc2O1` (stereo not drawn), with inactive: -3.89%.
For the compound `CCN(CC)C1CCN(C(=O)c2cnn(-c3ncc4c(n3)-c3ccccc3CCC4)c2COC)C1` (stereo not drawn), the activation was inactive: 20.6%.
Then `CCCCCCCC/C=C\CCCCCCCC(=O)OC[C@@H](O)[C@H]1OC[C@H](O)[C@H]1O`, with inactive: -13.9%; and `COc1ccc(Oc2ncc3nc(-c4cn(C)c5ccccc45)c(=O)n(C4CC4)c3n2)cc1`, with inactive: -1.65%.
Then `COC(c1ccc2c(c1)CN(C(=O)Cn1nc(C)c3ccccc3c1=O)CCO2)C1CCCCC1` (stereo not drawn), with inactive: -14.5%.
Then `OC[C@H]1O[C@@](CO)(O[C@H]2O[C@H](CO)[C@@H](O)[C@H](O)[C@H]2O)[C@@H](O)[C@@H]1O`, with inactive: -13.5%; and `CC(=O)NCCNc1ncnc2ccc(-c3ccoc3)cc12`, with inactive: -18.2%.
`COc1ccc2c(c1)OCC(Cc1ccc(OC)c(OC(C)=O)c1)C2=O` (stereo not drawn): the activation was inactive: -8.42%.
Turning to `COC(=O)C[C@H]1c2cc(C(F)(F)F)ccc2S(=O)(=O)N1C(C)(C)C`, the activation is inactive: -37.2%.
Next, `COc1cccc(CNC(=O)c2c(OC)cc(=O)n3c2CCN(C(=O)C2CC24CCCC4)CC3)c1` (stereo not drawn): inactive: -16.3%; `O=C(c1cccc(F)c1)N1CCC2(CCCN(C(c3ccccc3)c3ccccc3)C2)CC1`: inactive: -16.6%; `COc1ccc(-n2c(=O)c(C)nc3cnc(N(C)C)nc32)cc1`: inactive: -8.07%.
In the case of `O=C1C(=O)c2ncccc2-c2cccnc21`, the activation was inactive: -6.56%.
Next, `OCCOCCN1CCN(C(c2ccccc2)c2ccc(Cl)cc2)CC1` (stereo not drawn): inactive: -8.4%; `C[C@]12CCC(=O)C[C@@H]1CC[C@@H]1[C@@H]2CC[C@]2(C)C=CC[C@@H]12`: inactive: 10%.
Next, `O=C(O)c1ccc2c3c1cccc3c(=O)n1c3ccccc3nc21`: inactive: -2%; `O=C(Nc1cccc(F)c1)N1CC[C@@]2(CCCN(C(=O)c3csnn3)C2)C1`: inactive: -9.14%; `CC(=O)Oc1c(C)c(C)c2c(c1C)CCC(C)(CCCC(C)CCCC(C)CCCC(C)C)O2` (stereo not drawn): inactive: -11.6% and inactive: -7.26%.
Then `COc1ccc(C(=O)N2CCC3(CCN(Cc4ccc(C#N)cc4)CC3)CC2)cc1`, with inactive: -8.12%; and `COC(=O)c1ccc(C(=O)NCC2Cc3cc(F)cc(-c4cncnc4)c3O2)cc1` (stereo not drawn), with inactive: -5.56%; and `Cc1cccc2c3c(ccc12)C1=C(C(=O)C3=O)C(C)CO1` (stereo not drawn), with inactive: -37.5%.
Turning to `CCCCCCCCCCCC(=O)OC[C@@H](O)C1OC[C@H](O)[C@H]1O` (stereo partly drawn), the activation is inactive: -67.6%.
Then `Nc1cccc2c1CN(C1CCC(=O)NC1=O)C2=O` (stereo not drawn), with inactive: -9.46%; and `CCCCCCCCCCCCCCCC(C)C1=NCCN1` (stereo not drawn), with inactive: -12.9%.
Next, `O=C(c1ccc(Cl)cc1)N1CCN(c2ccc([N+](=O)[O-])c3ncccc23)CC1`: inactive: -40.2%; `COC(=O)[C@@H]1N2C(=O)[C@@H](NC(=O)C(C)Oc3ccccc3)[C@H]2SC1(C)C` (stereo partly drawn): inactive: -7.96%; `COCC1CCCN(Cc2ccc3c(c2)CN(C(=O)c2cccnc2OC)CCO3)C1` (stereo not drawn): inactive: -5.39%.
